Data: the supplement of paper PMC10185492
Some of the results follow. Read counts after selection give these values, which scatter widely.

test system: SARS-CoV-2 3CLpro (nsp5); assay: substrate phage enrichment score (protease-eluted vs HEPES control, +1 offset) (ratio); higher = better cleaved substrate; conditions: selection round: 4; protease elution time: 15 min
Protocol: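 Random heptapeptide substrate phage display (M13 pIII fusion, heptapeptide between an N-terminal biotinylated AviTag GLNDIFEAQKIEWHE and pIII; phages immobilised on streptavidin) eluted by cleavage with 50 nM protease in 20 mM HEPES at 37 °C. Selected phages were NGS sequenced, and the enrichment score is (reads in protease sample + 1)/(reads in HEPES blank-selection control + 1).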

Substance	substrate phage enrichment score
DHVTILQ	58.7
QRCNAAA	> 48
PRMYTNP	1.62
SKSDGHT	> 21
SCAPIVR	> 28
TPTVTQR	> 52
PHWTPGT	> 38
QREGCFW	> 23
AHADTIQ	4.6
VKSRTDG	> 32
AHESGAI	7
RANCLMQ	13
KPDFQGG	11.5
RSEFPGR	14.5
NPTPISN	> 24
RNGTTSN	1.09
QTFCRSR	> 123
ARQESSG	0.421
QPFLRER	6.4
LCRDRCM	4.3
AEQKLIS	0.368
MPNRVSP	8.4
SCNGIGS	8.5

Substance	substrate phage enrichment score
EGAHAPW	0.923
TSAHHHH	0.526
PIERFDT	0.571
MPIQCHP	> 38
SVAAHHH	0.95
SQRSLAP	1.34
THRGNLD	1.5
VVHESLS	> 30
SRQYFQG	5
HEAAHHH	0.938
AQGNAVC	0.711
PQAGLSG	> 38
SCTRWSC	> 22
VTPRCLK	0.565
SSTTTLQ	> 25
SQLGPSK	> 23
HNHHHGA	0.444
APVRLQS	881
NVQLQAS	> 116
WPRWPND	1.52
PSYELKA	> 54
SYDLNHG	7
CPYEETI	3.17

Substance	substrate phage enrichment score
KRWHPGD	> 40
TKCSLVN	8.33
AHLKSHN	> 24
QTGDDPV	0.0714
VTISRQG	15.5
RTGLNTS	17.3
TSSAAHH	0.25
QTLEHRY	2.14
ARETVRG	> 40
RDLLRAP	3
PKSRANW	> 31
KESDKET	> 34
SEQVTLQ	141
NELTLDP	7.8
NNCVNDR	> 49
HQKEPST	0.889
CNTRNMG	0.429
TKTMSAH	1.44
NEPITFR	> 39
TSLQSRE	20
RTYSHHM	> 22
PASPVLQ	> 401
LFEQTSN	> 26

Substance	substrate phage enrichment score
WCVAPDR	> 25
SGPQVNR	12
SSCEYKR	4.17
GNCHKET	1.11
GPHLPNA	1
FHHHHGA	3.27
RPGRHSE	0.5
FRESEEN	2
MPFAQSH	2.78
TARWSET	12.5
NRAPNLQ	> 28
LDPLTAG	2
NKRPVRS	0.087
ISKLQSG	100
PRVDPCG	2.86
AYDWPSE	> 31
LPGNQRG	> 129
MRRPIAQ	2.06
SVDSCSA	> 25
GQSSLLR	> 32
VTLQAGI	> 21
RVRSDHH	14
PTTNSMQ	> 52

Substance	substrate phage enrichment score
HEPKALR	> 21
CSYDGRQ	> 33
YRGGNTQ	0.88
QAASETR	0.333
KCTPHKV	0.381
RGSQHNN	> 21
TAGQPNT	2.22
TDRQNPW	> 23
TPNSCIK	> 25
HCHHHHG	0.7
AQAAHHH	0.87
ARVRLQS	> 442
MPLRAAQ	0.405
EVHVMCN	> 111
NTITVMG	2.45
GPSLMRG	0.435
SNIKAQC	5.7
AKSWDGS	6
SNVLNCR	0.966
HGHESGE	18
ESCKREL	0.526
RPTSKLQ	> 26
QDTWKDG	1.12

Substance	substrate phage enrichment score
CPHRGVP	1
VLYFQGG	4
GGSECEH	> 21
ASESSLQ	14.8
AAHHHHH	0.473
AHTMTHP	5.2
TADNPPE	11.3
KPRIEQE	> 33
APRVGFV	1.75
QRCVTHD	1.83
LNKLQSN	> 42
RMEHRGP	> 28
CRLSRRA	> 22
WQTTKPR	6.2
YTEEPSG	1.3
CRTYMTT	2.28
RSPQILK	0.0952
RSSSASP	0.636
ASIGPLT	0.364
CGVRTGG	1.21
GSPGEEE	> 27
THNERGR	12.5
SILHPHG	0.533

Substance	substrate phage enrichment score
QRDGADH	> 32
DFSVNAN	> 42
ELTNESN	1.66
SRSEDGT	1.91
HPNALKG	> 35
YYFQGGS	2.29
QGHHVSC	> 156
DYKDRLS	10
VYNLKSN	> 56
LKYSHCQ	2.71
LKNENGR	10
TRRTTLQ	> 317
CGQDLKW	4.2
NKEAFSQ	> 27
ENAETRS	> 30
EHDLKPL	> 223
AIRNGEM	> 27
ITSPAGM	3.15
KTSKGCP	3.83
KETRDSH	0.438
SYHDSLM	12.5
SRYYESR	4
DLHGANG	> 21

Substance	substrate phage enrichment score
ITSVRET	3.12
TAVLQGD	> 22
TTTHMNL	3.12
RGEQVSE	10.3
GQPCIYS	4.5
ECRRDHG	> 32
GSNSHLA	> 27
SAAAPHH	1.13
AAVGMQA	1
QENKLPG	> 260
HPGVEDG	> 38
ERHCRAY	> 131
VEAAHHH	0.6
TQLQGFQ	> 57
KPNYPRH	> 28
SEHVKMQ	> 21
SWCTKYG	> 29
CKTKCAL	1.8
TQRANGP	1
GAAAPHH	1.38
RASVRLT	> 80
PANSTLQ	11
